# Measured values: the supplement of paper PMC10441789
# The list shows a part of the results. Antibody binding of pooled human sera (four to six donors per pool; dilution not stated) to peptides of the Trypanosoma cruzi antigen TSSA on microarrays. Quantile-normalised fluorescence in arbitrary units, mean of duplicate arrays; higher = more binding. No active / inactive call. The uninfected pools are read here as the healthy donors of the same country. The strongest signals lie near the top of the scale (about 60,000).
# Experiments:
# Assay in all cases: antibody binding signal (normalised fluorescence) (arbitrary fluorescence units); higher = stronger serum antibody binding to peptide
# [1] = test system: pooled sera of chronic Chagas disease patients, Bolivia
# Method: (§1)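 Microarray of 15-residue peptides over residues 30-55 of Trypanosoma cruzi TSSAII, each with 1 to 10 substitutions at naturally variable positions, probed with one serum pool per country.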
# [2] = test system: pooled sera of chronic Chagas disease patients, Brazil
# Method: as §1
# [3] = test system: pooled sera of chronic Chagas disease patients, Colombia
# Method: as §1
# [4] = test system: pooled sera of chronic Chagas disease patients, Mexico
# Method: as §1
# [5] = test system: pooled sera of chronic Chagas disease patients, USA
# Method: as §1
# [6] = test system: pooled sera of uninfected people, Argentina
# Method: as §1
# [7] = test system: pooled sera of uninfected people, Bolivia
# Method: as §1
# [8] = test system: pooled sera of uninfected people, Brazil
# Method: as §1
# [9] = test system: pooled sera of uninfected people, Colombia
# Method: as §1
# [10] = test system: pooled sera of uninfected people, Mexico
# Method: as §1
# [11] = test system: pooled sera of uninfected people, USA
# Method: as §1
Sequence,antibody binding signal [1],antibody binding signal [2],antibody binding signal [3],antibody binding signal [4],antibody binding signal [5],antibody binding signal [6],antibody binding signal [7],antibody binding signal [8],antibody binding signal [9],antibody binding signal [10],antibody binding signal [11]
PSGKENKAATGGAPS,3120,12400,11900,9510,10100,5270,2260,102,532,437,175
PSGKDKKAAAGETPS,605,2270,4600,4510,4640,157,312,85.9,219,97.2,73.5
GTDKKTATGGAPSPS,213,518,3170,576,1160,295,241,98.4,82.8,150,120
STPPSGTEKKPATGG,7180,42400,2650,26100,12400,1830,1640,528,234,368,1840
SGTENKAAAGEAPSP,8650,24600,548,514,15200,528,292,159,119,124,277
GKDNKPAAGGTPSPP,208,274,782,628,580,181,515,443,211,198,81.2
SGKEKKPATGEAPSP,35000,44900,2310,5090,36200,907,605,165,225,168,374
TPPSGKDNKPAAGEA,14500,30400,238,37200,13600,336,758,302,286,254,189
ISTPPSGKDKKPAAG,4170,10900,414,42600,1050,267,344,173,177,136,205
TENKTAAGEAPSQPG,25100,41900,204,263,8870,226,200,227,161,162,159
KKPAAGGAPSPSGAS,232,401,1600,303,428,198,125,113,79.3,69.9,242
GKDKKAATGGTPSQP,231,321,1130,1720,736,259,80.6,152,240,222,108
DNKTAAGGTPSPPGA,384,364,4170,315,1350,197,341,1340,345,1460,164
PSGKENKTATGGTPS,1470,9500,9730,8740,6890,5590,1580,144,469,269,194
DKKTAAGGTPSQPGA,280,426,9150,400,1610,354,105,1040,314,688,194
NKAATGGTPSQSGAS,662,1700,558,399,271,912,873,862,364,1310,1100
SGTDNKAAAGEAPSP,809,43500,395,158,11600,105,681,1260,121,109,170
SGKDNKAATGETPSP,2670,17200,612,450,11100,223,376,164,296,186,939
GKENKAATGGAPSPP,2780,15300,15800,13000,20700,542,218,124,171,149,150
KAAAGGAPSQSGASS,183,355,3390,594,250,192,142,134,92.8,371,155
KDKKAAAGETPSPSG,191,534,227,165,753,122,87.7,92.5,98.2,90,305
TISTPPSGTENKPAA,46000,53200,1350,5300,40800,9660,1480,777,942,583,1300
KEKKPATGGTPSPSG,254,156,663,219,278,173,87.2,258,98.3,90.9,314
STPPSGKEKKAATGG,199,345,4470,9930,1270,258,241,112,309,75.3,132
GKENKAATGEAPSPP,26500,36400,13700,14500,28800,370,150,135,161,196,129
EKKPAAGGAPSPSGA,215,392,5880,467,1010,342,844,428,110,125,754
KDKKAATGGTPSPSG,249,168,382,742,448,147,82,211,337,84.7,119

Sequence,antibody binding signal [1],antibody binding signal [2],antibody binding signal [3],antibody binding signal [4],antibody binding signal [5],antibody binding signal [6],antibody binding signal [7],antibody binding signal [8],antibody binding signal [9],antibody binding signal [10],antibody binding signal [11]
SGTDNKAAAGEAPSQ,15800,42700,403,184,11300,81.1,672,1060,80.4,99,194
DNKPAAGETPSQSGA,631,22100,324,178,3400,88.5,276,321,216,257,98.9
SGTENKTATGETPSQ,20400,23700,208,192,10600,487,389,186,220,198,160
TDNKPATGGTPSPPG,564,2230,280,468,231,213,607,507,388,296,133
GKDKKTAAGGAPSQP,345,435,2710,432,374,140,108,125,138,128,137
GTENKAATGGTPSQS,1510,1070,1830,2510,1300,302,518,313,282,331,142
NKTATGGTPSQSGAS,755,2160,540,458,580,873,789,672,315,992,1250
TDNKPATGGAPSQPG,16900,28500,482,425,2530,239,608,541,227,346,224
KAAAGGTPSQPGASS,164,451,4620,267,920,309,120,422,148,261,119
KKAAAGGAPSPSGAS,234,335,2980,372,415,206,107,121,121,94.4,227
TPPSGTEKKTAAGET,10300,22600,310,2970,1360,644,261,349,1160,168,202
GKDNKPAAGGTPSQP,201,1910,1080,596,515,346,472,433,179,386,93.2
PSGTDNKTAAGETPS,5420,37000,542,459,696,143,664,1080,296,184,211
EKKPAAGEAPSQSGA,6130,19800,511,312,15000,114,1120,161,107,212,987
GTDNKPAAGGAPSPP,551,38800,2510,662,1300,205,542,355,417,432,146
STPPSGTENKTAAGE,40000,49000,174,4100,35300,3560,339,272,399,330,286
GTEKKAATGGAPSPS,289,2030,2360,3400,2350,398,919,136,656,118,151
PPSGTDKKTATGGAP,3070,17300,2950,29200,1760,673,401,197,512,947,453
SGKENKPAAGGAPSQ,469,19700,4520,4950,18400,7070,1900,116,189,295,190
GKDKKPATGGTPSPP,561,246,1070,741,1160,187,132,232,136,129,102
KENKTATGGAPSPSG,229,228,550,292,390,300,124,117,100,108,149
KENKAAAGGTPSPPG,232,200,1140,145,920,102,77.1,306,135,78.8,99.3
TDNKPAAGEAPSQPG,25800,41900,397,155,15800,101,303,229,103,269,89.6
SGKDNKTAAGETPSP,532,1240,3600,1190,3200,261,325,170,675,229,495
GTEKKAATGGTPSPS,999,374,2470,1070,1440,216,746,929,1030,97.6,166
GTDNKPAAGEAPSQS,21200,44200,1230,235,18000,110,699,321,106,376,93.7
